Data from PubChem BioAssay AID588795 (National Center for Advancing Translational Sciences (NCATS), 2011).
Out of some 390,000 compounds screened, about 1,400 (0.36%) were called active. Inconclusive means that the source gave no clear call. Such entries were picked first, then a sample of the others. Calls follow the shape of the dose curve; as a rule, active = well fitted inhibition curve with a large enough effect; inconclusive = small, poorly fitted or top-dose-only effect; inactive = no such curve, though single readings can be large or run the other way. Potencies beside an inconclusive call are fits to weak or partial responses and may not hold up.

molecular target: Flap endonuclease 1 (Homo sapiens) (UniProt P39748); assay: qHTS Assay for the Inhibitors of Human Flap endonuclease 1 (FEN1).; also: nearly all actives have a fitted effect of over 65% in size; conditions: Recombinant FEN1 flap cleavage, fluorescence, 15 min; series mostly up to 114 µM; activity change, negative = inhibition: at the top concentration
UniProt P39748, sequence (P39748 whole entry, looked up): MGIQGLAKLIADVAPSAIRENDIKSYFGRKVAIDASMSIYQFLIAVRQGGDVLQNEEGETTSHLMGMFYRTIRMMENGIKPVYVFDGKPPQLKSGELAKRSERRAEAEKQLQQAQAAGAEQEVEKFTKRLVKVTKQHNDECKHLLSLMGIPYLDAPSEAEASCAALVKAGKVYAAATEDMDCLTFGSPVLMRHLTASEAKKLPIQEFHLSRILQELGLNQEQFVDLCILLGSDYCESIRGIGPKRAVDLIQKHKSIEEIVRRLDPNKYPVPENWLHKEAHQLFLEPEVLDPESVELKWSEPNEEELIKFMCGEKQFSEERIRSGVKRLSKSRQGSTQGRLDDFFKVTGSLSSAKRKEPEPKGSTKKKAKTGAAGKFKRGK
Method in brief: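 Recombinant FEN1 (10 nM) was preincubated with pin-transferred compounds for 15 min at room temperature, then flap DNA substrate (50 nM final) was added. Plates were read at 0 and 15 min, and normalized concentration–response data were fitted to a four-parameter Hill equation.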
% is scaled to controls: 0 for no effect and ±100 for the full control effect; potency is read from the fitted curve at half-maximal effect; tags tell the direction and shape of the fitted curve.

Structure (SMILES) | Potency | activity change, negative = inhibition
CCc1nn(CC(=O)NCc2ccccc2)c(=O)c2cccn12 | inconclusive: 56.2 µM [inhibitor, partial curve, poor fit] | 
CCCCN(C)C(=O)CSc1c2c(nc3ccc(Cl)cc13)CCCC2 | inconclusive: 89.1 µM [inhibitor, single point] | 
O=C(O)c1cccc(S(=O)(=O)Nc2ccc([N+](=O)[O-])cc2O)c1 |  | inactive: 13.8%
CCOc1ccc(NC(=O)c2cc3c(-c4ccccc4F)nn(C)c3s2)cc1 | inconclusive: 70.8 µM [inhibitor, single point] | 
Cc1ccc(N=C/C(C(=O)C(F)(F)F)=C(\O)c2ccco2)cc1Cl | inconclusive: 89.1 µM [inhibitor, partial curve, poor fit] | 
CCc1ccc(OCCCSc2nc(-c3ccc(C(C)(C)C)cc3)nc3cc(=O)[nH]n23)cc1 | inconclusive: 20 µM [inhibitor, partial curve, poor fit] | 
O=C(O)CN1C(=O)/C(=C\C(Br)=C\c2ccccc2)SC1=S | inconclusive: 79.4 µM [inhibitor, single point] | 
C#CCOCCOCCOCCNc1nc(N2CCN(C(=O)CCCCCCCCCCNC(=O)[C@H]([C@@H](C)CC)n3cc(CCCCN=C(N)N)nn3)CC2)nc(N2CCN(C(=O)CCCCCCCCCCNC(=O)[C@H](CO)n3cc(CCCSC)nn3)CC2)n1 | inconclusive: 11.2 µM [inhibitor, partial curve, poor fit] | 
Oc1ccc(-c2csc(Nc3ncccn3)n2)cc1O | inconclusive: 56.2 µM [inhibitor, partial curve, poor fit] | 
O=c1c(/C=N/O)c(Nc2ccccc2)nc2ccccn12 | inconclusive: 89.1 µM [inhibitor, partial curve, poor fit] | 
CCOC(=O)c1ccc(NC(=O)c2c(NCc3cccs3)sc3c2CCCCC3)cc1 | inconclusive: 79.4 µM [inhibitor, partial curve] | 
CC1CCCCN1CCNC(=O)c1cc2c(=O)n(C)c3ccccc3c2n1C (stereo unspecified) | inconclusive: 15.8 µM [inhibitor, full curve] | 
CN(C)CCNC(=O)c1c(NC(=O)c2ccccc2)sc2c1CCCC2 | inconclusive: 44.7 µM [inhibitor, partial curve, poor fit] | 
Cc1cccc(OCC(=O)Nc2ccc(O)c(-c3nc4ccccc4o3)c2)c1 |  | inactive: -1.53%
C=C(CO)C1Cc2cc(C(C)=O)ccc2O1 (stereo unspecified) | inconclusive: 31.6 µM [inhibitor, partial curve] | 
COC(=O)/C(=C(O)\C=C\c1ccccc1[N+](=O)[O-])c1nc2ccccc2[nH]1 | inconclusive: 70.8 µM [inhibitor, partial curve, poor fit] | 
